Reference: PubChem BioAssay AID686978 (National Center for Advancing Translational Sciences (NCATS), 2013)
Among all 420,000 compounds or so, about 64,000 (15%) were called active. Inconclusive results, whose numbers are uncertain, are shown with a selection of clear calls. Calls follow the shape of the dose curve; as a rule, active = well fitted inhibition curve with a large enough effect; inconclusive = small, poorly fitted or top-dose-only effect; inactive = flat fitted curve, though single readings scatter. No potency is given beside an inconclusive call; the fits are too rough.

assay: qHTS for Inhibitors of human tyrosyl-DNA phosphodiesterase 1 (TDP1): qHTS in cells in absence of CPT; details: DT40 Tdp1-/- hTDP1 cells, no CPT, ATP luminescence, 48 h; activity change, negative = growth inhibition: at 46.2 µM (top of the series) unless noted; also: nearly all actives have a fitted effect of over 55% in size
Procedure, shortened: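 Compound effects on proliferation are scored in DT40 Tdp1-/-;hTDP1 cells in the absence of CPT. ATP levels (CellTiter-Glo luminescence) are recorded after a ≥48 hr, 37 °C incubation.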
% is scaled to controls: 0 for no effect and ±100 for the full control effect; potency is read from the fitted curve at half-maximal effect; tags tell the direction and shape of the fitted curve.

SMILES	activity change, negative = growth inhibition	Potency
N#Cc1nc(-c2ccc(OCc3ccc(Cl)cc3)cc2)oc1NCc1cccnc1	inconclusive: -32.7% [inhibitor]	–
CC(NC(=O)C1CCC(C(=O)NC(C)c2ccccc2)CC1)c1ccccc1 (centres undefined)	inactive: 6.88%	–
N#Cc1ccc(N2CCN(C(=O)c3cccs3)CC2)c(F)c1	–	inconclusive [inhibitor, single point]
Cc1ccc[n+](CC2OCc3ccccc3CO2)c1	inactive: -0.213%	–
Cc1ccc(NC(=O)c2cccc(S(=O)(=O)N(C)c3ccccc3)c2)cc1S(=O)(=O)N1CCOCC1	–	active: 23.1 µM
COc1nnc(-c2ccc(C)c(S(N)(=O)=O)c2)c2ccccc12	inactive: -14.7%	–
CCC(=O)N1CCc2cc(S(=O)(=O)NCCC(=O)N3CCN(c4ccccc4)CC3)ccc21	–	active: 20.6 µM
Cc1cc(Br)ccc1NC(=O)CN(C)C(=O)C1CCN(C(=O)c2ccc(F)cc2)CC1	–	inconclusive [inhibitor, single point]
COc1ccc(CCNC(=S)Nc2ccccc2)cc1	–	inconclusive [inhibitor, partial curve]
Cn1c(O)c(C2=c3ccccc3=NC2=O)sc1=Nc1ccc(Cl)cc1	–	inconclusive [inhibitor, single point]
O=C(Nc1ccc2c(c1)OCCO2)C(c1ccncc1)n1c(=O)c(-c2ccco2)nc2ccccc21 (centres undefined)	–	inconclusive [inhibitor, partial curve]
Cc1ccc(NC(=O)CN2C(=O)CCc3ccccc32)cc1C	–	inconclusive [inhibitor, single point]
Cc1onc(-c2c(F)cccc2Cl)c1C(=O)c1ccccc1	–	inconclusive [inhibitor, single point]
NS(=O)(=O)c1cccc(NC(=S)NC(=O)C23CC4CC(CC(C4)C2)C3)c1	–	active: 20.6 µM
CC(C)Nc1ccc(-c2nc(-c3ccncc3)no2)cc1[N+](=O)[O-]	inactive: -14.3%	–
COCCNC(=O)C(OC(=O)c1ccco1)c1ccc(OC)cc1 (centres undefined)	inactive: -15.2%	–
O=C(NCCCn1ccnc1)c1cc(-c2ccc(Br)cc2)on1	–	inconclusive [inhibitor, partial curve]
Cc1ccccc1CN1C[C@H]2CON(C)[C@H]2C[C@H]1c1cccc(Br)c1	inactive: -29.1%	–
COc1ccc2[nH]c(C)c(CCNC(=S)Nc3ccc(C)cc3)c2c1	–	inconclusive [inhibitor, single point]
NS(=O)(=O)c1ccc(CCNC(=O)c2ccc([N+](=O)[O-])cc2[N+](=O)[O-])cc1	–	inconclusive [inhibitor, partial curve]
COc1ccc(C2=C(Nc3ccc(Br)c(C)c3)c3ccccc3C2=O)cc1	–	active: 11.6 µM
CC[N+](CC)(CC)CCCCOc1ccc2c(c1)C(=O)c1cc(OCCCC[N+](CC)(CC)CC)ccc1-2	–	inconclusive [inhibitor, single point]

SMILES	activity change, negative = growth inhibition	Potency
COc1ccc(NC(=O)c2nn(C)c3c2CS(=O)(=O)c2ccccc2-3)cc1Cl	inactive: -28.9%	–
O=c1cc(-c2ccc(Cl)cc2)nc(N2CCN(c3ccccc3)CC2)[nH]1	–	inconclusive [inhibitor, single point]
COC(c1ccccc1)c1nnc(CCC(=O)N(C)CCOc2ccccc2)o1 (centres undefined)	–	inconclusive [inhibitor, single point]
COc1ccccc1NC(=O)COc1cccnc1[N+](=O)[O-]	–	inconclusive [inhibitor, single point]
Cc1ccccc1CN1C(=O)c2ccccc2Sc2ccc(C(=O)NC3CCCCC3)cc21	–	active: 16.4 µM
COc1ccccc1CCNC(=O)c1nccnc1C(=O)O	inactive: -1.98%	–
CN(Cc1ccc(Cl)cc1)C(C(=O)NC1CCCCC1)c1cc2ccccc2o1 (centres undefined)	–	inconclusive [inhibitor, single point]
CC1=NN(Cc2ccccc2)C(=O)/C1=C\c1ccc(N(C)C)cc1	–	inconclusive [inhibitor, single point]
CCC(C)[C@H](NC(=O)[C@@H]1CSC2c3ccccc3C(=O)N21)C(=O)N1CCCCC1 (some centres undefined)	inactive: 14%	–
O=C(C1CC(=O)N(c2ccc3c(c2)OCCO3)C1)N1CCN(Cc2ccccc2)CC1 (centres undefined)	–	inconclusive [inhibitor, single point]
COc1ccc([N+](=O)[O-])cc1NC(=O)CS(=O)(=O)c1ccc(C)cc1	–	inconclusive [inhibitor, partial curve]
CCc1ccc2nc(NC(=O)Cn3cnc4ccccc4c3=O)sc2c1	–	inconclusive [inhibitor, partial curve]
COc1ccc(N2CCN(Cc3nc4c(c(=O)[nH]c(=O)n4C)n3Cc3ccc(C)cc3)CC2)cc1	–	inconclusive [inhibitor, full curve]
CNc1nc(Cl)c(SC)c(NCc2ccc(F)cc2)n1	–	inconclusive [inhibitor, single point]
COc1ccc(N(CC(=O)NC(C)c2ccccc2)S(=O)(=O)c2c(C)nn(C)c2C)cc1 (centres undefined)	–	inconclusive [inhibitor, single point]
Cn1nnc2cc(NC(=O)Nc3ccccc3F)ccc21	–	active: 16.4 µM
CCOC(=O)c1c(C)[nH]c(C)c1S(=O)(=O)N1CCCC(C(=O)N2CCN(c3ccccc3F)CC2)C1 (centres undefined)	–	inconclusive [inhibitor, single point]
CN1CCCC1CCNS(=O)(=O)c1ccc(Br)cc1 (centres undefined)	–	active: 9.2 µM
CC1CN(C(=O)CCC(=O)NCc2cccc(Cl)c2)c2ccccc2S1 (centres undefined)	inactive: -28.4%	–
O=C(N1CCCCCC1)N1CCN(S(=O)(=O)N2CCCCC2)CC1	inconclusive: -32.3% [inhibitor]	–
COc1ccc(C(=O)CC(=O)C(=O)Nc2cc(OC)c(OC)c(OC)c2)cc1	–	inconclusive [inhibitor, single point]
COc1cc(/C=C/C(=O)c2ccc3c(c2)OCCO3)cc(OC)c1OC	–	inconclusive [inhibitor, single point]
